Test results published in article PMC7612757 (Science (New York, N.Y.), 2022).

Biological target: CENP-U (human, UniProt Q71F23 1-418)
Assay: cryo-EM structure

Sequence of UniProt Q71F23 (Q71F23 whole entry): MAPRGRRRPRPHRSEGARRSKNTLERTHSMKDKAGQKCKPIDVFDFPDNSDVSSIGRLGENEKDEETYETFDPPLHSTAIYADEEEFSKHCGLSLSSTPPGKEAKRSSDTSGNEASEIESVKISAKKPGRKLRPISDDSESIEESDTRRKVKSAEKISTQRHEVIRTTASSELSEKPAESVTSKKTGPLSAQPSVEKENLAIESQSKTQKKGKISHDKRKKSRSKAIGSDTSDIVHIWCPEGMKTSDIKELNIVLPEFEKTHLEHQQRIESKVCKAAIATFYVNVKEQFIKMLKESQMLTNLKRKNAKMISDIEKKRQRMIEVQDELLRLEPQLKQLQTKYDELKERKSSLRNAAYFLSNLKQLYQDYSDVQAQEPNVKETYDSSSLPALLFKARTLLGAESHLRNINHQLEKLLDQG

binding result: binds
B1: CENP-Q (natural protein)
chain: not shown
